Assay results from PubChem BioAssay (NCATS).
“And” between values parts separate entries of the source, which are not always exact repeats. Equal values may be shown once. The shares of active, inactive and inconclusive entries below differ from those in the screen. No potency is given beside an inconclusive call; the fits are too rough. The source made the active and inactive calls. Calls follow the shape of the dose curve; as a rule, active = well fitted cell-killing curve with a large enough effect; inconclusive = small, poorly fitted or top-dose-only effect; inactive = flat fitted curve, though single readings scatter.

Assay: Cellular viability qHTS for adrenocortical cancer (ACC) cell line NCI-H295R (AID 1963990); also: nearly all actives have a fitted effect of over 60% in size;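 as to activity change, negative = viability loss: 0% = DMSO only wells and -100% = full killing with cytotoxic reference compound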
Settings: CellTiter-Glo ATP luminescence, 48 h; activity change, negative = viability loss: at 46.1 µM (top of the series)
In short: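 Readout: CellTiter-Glo luminescence, 20 min RT. Exposure: 48 h, 37C/5% CO2. Cells: NCI-H295R, ITS-DMEM serum-free. Range: up to 46 uM. Analysis: 4PL fit, IC50 plus efficacy.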
Potency is read from the fitted curve at half-maximal effect; tags tell the direction and shape of the fitted curve.

Row | Compound | activity change, negative = viability loss | Potency
1 | C[N+](C)(C)CCCCCCCCCC[N+](C)(C)C | inactive: -6.88% | 
2 | [Cl][In]([Cl])[Cl] |  | inconclusive [cytotoxic, full curve]
3 | O=c1cc(CO)occ1O |  | inconclusive [cytotoxic, partial curve]
4 | CC(C)[C@@H]1CC[C@@H](C)CC1=O | inactive: -4.8% | 
5 | C[C@H]1CNC(=O)c2cnn3ccc(nc23)N[C@H](C)c2cc(F)ccc2O1 |  | active: 8.91 µM
6 | O=c1ccc2ccccc2o1 |  | inconclusive [cytotoxic, single point]
7 | Cc1ccc(-n2nc(C(C)(C)C)cc2NC(=O)NCc2cc(F)ccc2Oc2ccc3c(cnn3CCO)c2)cc1 |  | inconclusive [cytotoxic, single point]
8 | CC[C@H](Nc1ncnc2nc[nH]c12)c1oc2ccccc2c(=O)c1-c1cccc(F)c1 |  | inconclusive [cytotoxic, single point]
9 | C=C1C(=O)OC2/C=C(/C)CC/C=C(/C)CCC12 (stereo not given) |  | inconclusive [cytotoxic, partial curve, poor fit]
10 | CCCCC(CC)COC(=O)c1ccccc1O (stereo not given) |  | inconclusive [cytotoxic, single point]
11 | CCOCCn1c(C2CCN(CCc3ccc(C(C)(C)C(=O)O)cc3)CC2)nc2ccccc21 |  | inconclusive [rising, partial curve, poor fit]
12 | Cc1[nH]c(/C=C2\C(=O)Nc3ccc(F)cc32)c(C)c1C(=O)NC[C@H](O)CN1CCOCC1 |  | inconclusive [cytotoxic, partial curve, poor fit]
13 | CCS(=O)(=O)N1CCN(c2ccc(Nc3ncc(C(N)=O)c(NC4CC4)n3)cc2)CC1 |  | active: 10 µM
14 | C[C@@H]1CCNC(=O)c2cc3ccc(C(=O)Nc4nc5ccccc5n4CCCN(C)C)cc3n21 |  | inconclusive [cytotoxic, partial curve, poor fit]
15 | CC(C(=O)O)c1ccc(CC2CCCC2=O)cc1 (stereo not given) |  | inconclusive [cytotoxic, single point]
16 | Nc1ccn([C@@H]2O[C@H](CO)[C@@H](O)C2(F)F)c(=O)n1 |  | active: 2.06 µM and active: 794 nM
17 | C=CC(=O)Nc1cccc(Oc2nc(Nc3ccc(N4CCN(C)CC4)cc3)nc3ccsc23)c1 |  | active: 5.01 µM
18 | Cc1[nH]c(/C=C2\C(=O)Nc3ccc(S(=O)(=O)N(C)c4cccc(Cl)c4)cc32)c(C)c1C(=O)N1CCN(C)CC1 |  | active: 14.1 µM
19 | O=C(NO)C1(CS(=O)(=O)c2ccc(Oc3ccc(Cl)cc3)cc2)CCOCC1 |  | inconclusive [cytotoxic, single point]
20 | COc1cccc(OC)c1C(=O)N[C@@H]1C(=O)N2[C@@H]1SC(C)(C)[C@@H]2C(=O)O |  | inconclusive [cytotoxic, single point]

Row | Compound | activity change, negative = viability loss | Potency
21 | COc1ccc(CN(CCN(C)C)c2ncccn2)cc1 | inactive: -16.2% | 
22 | O=[N+]([O-])c1cccc(S(=O)(=O)NCCNS(=O)(=O)c2cccc([N+](=O)[O-])c2)c1 | inactive: -9.21% | 
23 | C=C1CC[C@@H]2[C@](C)(CO)[C@H](O)CC[C@@]2(C)[C@@H]1C/C=C1/C(=O)OC[C@H]1O |  | inconclusive [cytotoxic, partial curve]
24 | CNC(=O)c1cccc(-c2ccc3c(N4CCOC[C@@H]4C)nc(N4CCOC[C@@H]4C)nc3n2)c1 |  | active: 0.794 µM
25 | C[C@]1(Cn2ccnn2)[C@H](C(=O)O)N2C(=O)C[C@H]2S1(=O)=O |  | inconclusive [cytotoxic, single point]
26 | CCCc1ncc(C[n+]2ccccc2C)c(N)n1 |  | inconclusive [rising, single point]
27 | CC(C)(C)C(=O)OCOC(=O)C1N2C(=O)CC2S(=O)(=O)C1(C)C (stereo not given) |  | inconclusive [cytotoxic, partial curve, poor fit]
28 | c1ccc(CC2=NCCN2)cc1 |  | inconclusive [cytotoxic, single point]
29 | COc1cc2ncnc(Nc3ccc(O)c(Br)c3)c2cc1OC |  | inconclusive [cytotoxic, partial curve]
30 | Cc1ccc([N+](=O)[O-])cc1S(=O)(=O)N(C)/N=C/c1cnc2ccc(Br)cn12 |  | active: 0.282 µM
31 | O=C1CC[C@H](C(=O)N2CCCCC2)N1 | inactive: 6.12% | 
32 | Oc1ccc(Nc2nc(-c3ccc(Cl)cc3)cs2)cc1 |  | inconclusive [cytotoxic, single point]
33 | Cn1cncc1C(N)(c1ccc(Cl)cc1)c1ccc2c(c1)c(-c1cccc(Cl)c1)cc(=O)n2C (stereo not given) |  | active: 3.55 µM
34 | CO[C@H]1O[C@@H]2O[C@@]3(C)CC[C@H]4[C@H](C)CC[C@@H]([C@H]1C)[C@@]24OO3 | inactive: 5.25% | 
35 | CCc1cccc(CC)c1NC(=O)CN(CC(=O)O)CC(=O)O | inactive: -6.35% | 
36 | C[C@H](CCC(=O)O)[C@H]1CC[C@H]2[C@@H]3C(=O)C[C@@H]4CC(=O)CC[C@]4(C)[C@H]3CC(=O)[C@]12C | inactive: -21.5% | 
37 | CCn1c(N)c(C(=O)NC)c(=O)c2ccc(C#CC(C)(O)COC)nc21 (stereo not given) |  | inconclusive [cytotoxic, partial curve, poor fit]
38 | Cc1cc(Nc2cc(N3CCN(C)CC3)nc(/C=C/c3ccccc3)n2)n[nH]1 |  | active: 10 µM
39 | CC[C@]12C=CCN3CC[C@@]4(c5cc([C@@]6(C(=O)OC)C[C@H]7C[C@@H](C(C)(F)F)CN(Cc8c6[nH]c6ccccc86)C7)c(OC)cc5N(C)[C@H]4[C@@](O)(C(=O)OC)[C@@H]1OC(C)=O)[C@@H]32 |  | active: 0.548 µM
40 | Cn1cc(-c2nc(N[C@@H]3CCCC[C@@H]3N)c(F)c3c2C(=O)NC3)cn1 | inactive: 0.124% [at 3.81 µM] | 
